T1: RBFOX1 RRM RbFoxmut (Fox-RRM*) (Homo sapiens, UniProt Q9NWB1 109-208, R118D;E147R;N151S;E152T)
T1 sequence: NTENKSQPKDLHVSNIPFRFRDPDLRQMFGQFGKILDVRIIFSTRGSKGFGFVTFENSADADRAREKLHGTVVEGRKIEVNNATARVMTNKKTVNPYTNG

B1: UGCACAA (DNA:RNA)
RNA: GGGAGACCGGAAUUCAGAUUGUCCUGCACAAUUAAAUCCCGUCGUAGCCACCA
DNA 1: CAATCTGAATTCCGGTCTCCC
DNA 2: TGGTGGCTACGACGGGATT
B2: GUAAGGA (DNA:RNA)
RNA: B1 RNA with U25G, G26U, C27A, C29G, A30G
DNA 1: CAATCTGAATTCCGGTCTCCC
DNA 2: TGGTGGCTACGACGGGATT
B3: UGAGUCC (DNA:RNA)
RNA: B1 RNA with C27A, A28G, C29U, A30C, A31C
DNA 1: CAATCTGAATTCCGGTCTCCC
DNA 2: TGGTGGCTACGACGGGATT
B4: AUGCGCG (DNA:RNA)
RNA: GGGAGACCGGAAUUCAGAUUGUCCAUGCGCGUUAAAUCCCGUCGUAGCCACCA
DNA 1: CAATCTGAATTCCGGTCTCCC
DNA 2: TGGTGGCTACGACGGGATT
B5: UUAGACU (DNA:RNA)
RNA: B4 RNA with A25U, G27A, C28G, G29A, G31U
DNA 1: CAATCTGAATTCCGGTCTCCC
DNA 2: TGGTGGCTACGACGGGATT
B6: GACCAUU (DNA:RNA)
RNA: B4 RNA with A25G, U26A, G27C, G29A, C30U, G31U
DNA 1: CAATCTGAATTCCGGTCTCCC
DNA 2: TGGTGGCTACGACGGGATT
B7: UGACUGC (DNA:RNA)
RNA: B1 RNA with C27A, A28C, C29U, A30G, A31C
DNA 1: CAATCTGAATTCCGGTCTCCC
DNA 2: TGGTGGCTACGACGGGATT
B8: CCUGCCC (DNA:RNA)
RNA: B4 RNA with A25C, U26C, G27U, C28G, G29C, G31C
DNA 1: CAATCTGAATTCCGGTCTCCC
DNA 2: TGGTGGCTACGACGGGATT
B9: UAUCAUA (DNA:RNA)
RNA: B1 RNA with G26A, C27U, A28C, C29A, A30U
DNA 1: CAATCTGAATTCCGGTCTCCC
DNA 2: TGGTGGCTACGACGGGATT
B10: CCUGGAG (DNA:RNA)
RNA: B4 RNA with A25C, U26C, G27U, C28G, C30A
DNA 1: CAATCTGAATTCCGGTCTCCC
DNA 2: TGGTGGCTACGACGGGATT
B11: GCGUCAA (DNA:RNA)
RNA: B1 RNA with U25G, G26C, C27G, A28U
DNA 1: CAATCTGAATTCCGGTCTCCC
DNA 2: TGGTGGCTACGACGGGATT
B12: AGAGGAU (DNA:RNA)
RNA: B4 RNA with U26G, G27A, C28G, C30A, G31U
DNA 1: CAATCTGAATTCCGGTCTCCC
DNA 2: TGGTGGCTACGACGGGATT
B13: AAGGUAU (DNA:RNA)
RNA: B4 RNA with U26A, C28G, G29U, C30A, G31U
DNA 1: CAATCTGAATTCCGGTCTCCC
DNA 2: TGGTGGCTACGACGGGATT
B14: GAAUUAA (DNA:RNA)
RNA: B1 RNA with U25G, G26A, C27A, A28U, C29U
DNA 1: CAATCTGAATTCCGGTCTCCC
DNA 2: TGGTGGCTACGACGGGATT
B15: GGUAGAC (DNA:RNA)
RNA: B1 RNA with U25G, C27U, C29G, A31C
DNA 1: CAATCTGAATTCCGGTCTCCC
DNA 2: TGGTGGCTACGACGGGATT
B16: UGUAGAC (DNA:RNA)
RNA: B1 RNA with C27U, C29G, A31C
DNA 1: CAATCTGAATTCCGGTCTCCC
DNA 2: TGGTGGCTACGACGGGATT
B17: ACCAGGG (DNA:RNA)
RNA: B4 RNA with U26C, G27C, C28A, C30G
DNA 1: CAATCTGAATTCCGGTCTCCC
DNA 2: TGGTGGCTACGACGGGATT
B18: AUCAACG (DNA:RNA)
RNA: B4 RNA with G27C, C28A, G29A
DNA 1: CAATCTGAATTCCGGTCTCCC
DNA 2: TGGTGGCTACGACGGGATT
B19: UCUAGCG (DNA:RNA)
RNA: B4 RNA with A25U, U26C, G27U, C28A
DNA 1: CAATCTGAATTCCGGTCTCCC
DNA 2: TGGTGGCTACGACGGGATT
B20: AGUCCGU (DNA:RNA)
RNA: B4 RNA with U26G, G27U, G29C, C30G, G31U
DNA 1: CAATCTGAATTCCGGTCTCCC
DNA 2: TGGTGGCTACGACGGGATT

Positions count from the first letter of the chain named. This is one part of the list.

The test concerns the target T1, RBFOX1 RRM RbFoxmut (Fox-RRM*). Nature of the test: EMSA; HiTS-Eq, 1 nM pool, 10 min; buffer printed only for the single-RNA assays: 10 mM Tris pH 7.5, 150 mM NaCl, 3.4 mM EDTA, 0.001% NP-40, 30 C. To be noted: tags: His6 N-terminal (pET28a); label: 5' 32P. The gist of the method:
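Purified RbFox RRM (wild type or mutant) was equilibrated for 10 min in 50 µL with 1 nM of a 5′-radiolabelled pool of RNA with 7 randomized nucleotides, its flanks annealed to DNA oligonucleotides, across increasing protein concentrations. Free RNA was separated by 8% native PAGE, excised, reverse-transcribed, PCR-barcoded and sequenced on an Illumina HiSeq 2500. Relative association constants came from read-count changes of each variant against the control reaction, normalised to the cognate motif.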
(A gel shift assay detects complexes by their altered migration in electrophoresis.)
Take B1: the binding signal was 0.0732 KA relative to UGCAUGU.
In the case of B2, the binding signal was 0.0372 KA relative to UGCAUGU.
In the case of B3, the binding signal is 0.0735 KA relative to UGCAUGU.
On to B4, for which the binding signal was 0.198 KA relative to UGCAUGU.
For the molecule B5, the binding signal is 0.0743 KA relative to UGCAUGU.
Consider B6, for which the binding signal was 0.0767 KA relative to UGCAUGU.
For the molecule B7, the binding signal is 0.169 KA relative to UGCAUGU.
For B8 the value was 0.095 KA relative to UGCAUGU; for B9, 0.0784 KA relative to UGCAUGU.
For B10 the value was 0.113 KA relative to UGCAUGU; for B11, 0.0825 KA relative to UGCAUGU.
To B12 belongs 0.0959 KA relative to UGCAUGU; to B13, 0.116 KA relative to UGCAUGU; to B14, 0.122 KA relative to UGCAUGU.
On to B15, for which the binding signal was 0.0783 KA relative to UGCAUGU.
For B16 the value was 0.123 KA relative to UGCAUGU; for B17, 0.0771 KA relative to UGCAUGU; for B18, 0.119 KA relative to UGCAUGU.
For the molecule B19, the binding signal is 0.148 KA relative to UGCAUGU.
In the case of B20, the binding signal was 0.113 KA relative to UGCAUGU.

For the origin of these results see article PMC9911399, “Two distinct binding modes provide the RNA-binding protein RbFox with extraordinary sequence specificity”.
